# Laboratory results reported in the supplement of paper PMC9174493.
# The other results are listed elsewhere or left out. Single values of this set are uncertain. Values with irradiation are relative to irradiated vehicle.
# Tests used:
# [1] = tested on: A549-Dual; assay: NF-kB reporter (SEAP) activity, viability-corrected, relative to vehicle (fold change vs vehicle); higher = more activation of STING-IRF / NF-kB immune response reporter; conditions: 10 µM
# [2] = tested on: A549-Dual; assay: ISRE reporter (Lucia luciferase) activity, viability-corrected, relative to vehicle (fold change vs vehicle); higher = more activation of STING-IRF / NF-kB immune response reporter; conditions: 10 µM
# 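Wherever NF-kB reporter (SEAP) activity, viability-corrected, relative to vehicle is given: viability correction based on the alamar blue assay, with concentrations leaving 10% survival or less dropped.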
Structure (SMILES),NF-kB reporter ([1]; irradiation: 8 Gy/4 fr),NF-kB reporter ([1]; irradiation: none),ISRE reporter ([2]; irradiation: 8 Gy/4 fr),ISRE reporter ([2]; irradiation: none)
COC(=O)C1=COC(OC2OC(CO)C(O)C(O)C2O)C2C(CO)=CCC12 (stereo not drawn) [Geniposide],1.13,0.733,1.4,0.703
O=C1C(CCC(O)c2ccc(F)cc2)C(c2ccc(O)cc2)N1c1ccc(F)cc1 (stereo not drawn) [Ezetimibe],0.728,0.879,0.594,0.754
C=C=CCNC(=O)c1ccc(F)cc1 [Diastase],0.869,0.633,0.723,0.443
Cc1cn(C2CC(N=[N+]=[N-])C(CO)O2)c(=O)[nH]c1=O (stereo not drawn) [Zidovudine],0.803,1.24,0.665,0.57
Cc1ccc(/C(=C\CN2CCCC2)c2ccccn2)cc1.Cl.O [Triprolidine Hydrochloride],0.888,1.46,0.732,0.911
Cc1cc(C)cc(OCC2CNC(=O)O2)c1 (stereo not drawn) [Metaxalone],0.623,1.07,0.656,0.589
CN(C/C=C/C#CC(C)(C)C)Cc1cccc2ccccc12 [Terbinafine],1.2,0.995,1.39,1.02
CNS(=O)(=O)Cc1ccc2[nH]cc(CCN(C)C)c2c1.O=C(O)CCC(=O)O [Sumatriptan Succinate],0.85,0.897,0.94,0.882
CCCCC(CC)COC(=O)C=Cc1ccc(OC)cc1 (stereo not drawn) [Octinoxate],0.763,0.753,0.689,0.511
CCCCNc1ccc(C(=O)OCCN(C)C)cc1.Cl [Tetracaine HCl],1.01,1.12,0.9,0.903
Nc1ncn(C2CC(O)C(CO)O2)c(=O)n1 (stereo not drawn) [Decitabine],0.643,1.1,0.606,1.4
COc1ccc(-c2cc(=O)c3c(O)cc(OC4OC(COC5OC(C)C(O)C(O)C5O)C(O)C(O)C4O)cc3o2)cc1O (stereo not drawn) [Diosmin],0.836,0.764,0.78,0.637
CC(C)CCCC(C)CCCC(C)CCCCC(C)CCCC(C)CCCC(C)C (stereo not drawn) [Squalane],0.886,0.993,0.849,0.787
O=C(O)Cc1ccc(-c2ccccc2)cc1 [4-Biphenylacetic acid],0.883,1.01,0.912,0.78
CCOc1ccc(CC(CN(CCN(CC(=O)[O-])CC(=O)[O-])CC(=O)[O-])N(CC(=O)[O-])CC(=O)[O-])cc1.[Gd+3].[Na+].[Na+] (stereo not drawn) [Gadoxetate sodium],0.764,0.854,0.704,0.774
CC(C)C(N)C(=O)OCCOCn1cnc2c(=O)[nH]c(N)nc21.Cl (stereo not drawn) [Valaciclovir HCl],0.644,0.877,0.61,0.773
CCCCCCCCCCCCCCCCCC(=O)O [Stearic acid],0.773,0.652,0.645,0.505
CN1CCC(=C2c3ccccc3CC(=O)c3sccc32)CC1.O=C(O)/C=C/C(=O)O [Ketotifen Fumarate],0.648,0.753,0.847,0.747
Nc1nc2c(ncn2C2OC(CO)C(O)C2O)c(=O)[nH]1 (stereo not drawn) [Guanosine],1.05,0.761,1.13,0.884
COc1cc(NS(=O)(=O)c2ccc(N)cc2)ncn1 [Sulfamonomethoxine],0.917,1.1,0.978,1.04
CS(=O)(=O)OCCCCOS(C)(=O)=O [Busulfan],0.806,1.03,0.749,0.952
Oc1c(Cl)cc(Cl)cc1Sc1cc(Cl)cc(Cl)c1O [Bithionol],1.59,2.7,0.163,0.675
CC(CCC(=O)O)C1CCC2C3C(O)CC4CC(O)CCC4(C)C3CCC12C (stereo not drawn) [Chenodeoxycholic Acid],0.579,0.441,0.591,0.508
CC1(C)SC2C(NC(=O)C(N)c3ccccc3)C(=O)N2C1C(=O)[O-].[Na+] (stereo not drawn) [Ampicillin sodium],1.04,0.871,1.11,0.847
COCCCOc1ccnc(CS(=O)c2nc3ccccc3[n]2[Na])c1C (stereo not drawn) [Rebeprazole sodium],0.631,0.912,0.392,0.61
COc1ccc(C2Sc3ccccc3N(CCN(C)C)C(=O)C2OC(C)=O)cc1.Cl (stereo not drawn) [Diltiazem HCl],0.945,0.983,1.27,1.27

Structure (SMILES),NF-kB reporter ([1]; irradiation: 8 Gy/4 fr),NF-kB reporter ([1]; irradiation: none),ISRE reporter ([2]; irradiation: 8 Gy/4 fr),ISRE reporter ([2]; irradiation: none)
COC12C(COC(N)=O)C3=C(C(=O)C(C)=C(N)C3=O)N1CC1NC12 (stereo not drawn) [Mitomycin C],1.81,3.15,0.387,1.91
OCC1OC(c2ccc(F)c(Cc3cc4ccccc4s3)c2)C(O)C(O)C1O (stereo not drawn) [Ipragliflozin (ASP1941)],0.882,0.948,0.899,1.11
O=C([O-])CCSCC1OC2OC3C(CSCCC(=O)[O-])OC(OC4C(CSCCC(=O)[O-])OC(OC5C(CSCCC(=O)[O-])OC(OC6C(CSCCC(=O)[O-])OC(OC7C(CSCCC(=O)[O-])OC(OC8C(CSCCC(=O)[O-])OC(OC9C(CSCCC(=O)[O-])OC(OC1C(O)C2O)C(O)C9O)C(O)C8O)C(O)C7O)C(O)C6O)C(O)C5O)C(O)C4O)C(O)C3O.[Na+].[Na+].[Na+].[Na+].[Na+].[Na+].[Na+].[Na+] (stereo not drawn) [Sugammadex (sodium)],0.378,0.871,0.322,0.529
CC(=O)Oc1cc(C)c(OC(C)=O)c2ccccc12 [Menadiol Diacetate],0.322,0.6,0.144,0.217
O=C(O)CCCCC1CCSS1 (stereo not drawn) [Thioctic acid],1.2,0.733,1.27,0.831
O=C([O-])c1ccccc1.[Na+] [Sodium benzoate],0.732,1.13,0.649,0.819
CCCCC/C=C\C/C=C\CCCCCCCC(=O)OC [Methyl linoleate],0.83,0.48,0.778,0.387
COC(c1ccccc1)(c1ccccc1)C(Oc1nc(C)cc(C)n1)C(=O)O (stereo not drawn) [Ambrisentan],0.755,1.01,0.832,0.895
CCC1OC(=O)CC(O)C(C)C(OC2OC(C)C(OC3CC(C)(O)C(O)C(C)O3)C(N(C)C)C2O)C(CC=O)CC(C)C(=O)/C=C/C(C)=C/C1COC1OC(C)C(O)C(OC)C1OC (stereo not drawn) [Tylosin],0.8,0.814,0.886,0.729
CO/N=C(\C(=O)NC1C(=O)N2C(C(=O)[O-])=C(COC(C)=O)CSC12)c1csc(N)n1.[Na+] (stereo not drawn) [Cefotaxime sodium],0.852,1.28,0.938,1.16
Cl.Cl.O=C1c2c(O)ccc(O)c2C(=O)c2c(NCCNCCO)ccc(NCCNCCO)c21 [Mitoxantrone 2HCl],4.53,7.33,0.297,1.12
CCCCc1ncc(/C=C(\Cc2cccs2)C(=O)O)n1Cc1ccc(C(=O)O)cc1.CS(=O)(=O)O [Eprosartan Mesylate],1.15,1.15,1.02,0.773
CCn1cc(C(=O)O)c(=O)c2cc(F)c(N3CCNC(C)C3)c(F)c21.Cl (stereo not drawn) [Lomefloxacin HCl],1.03,0.914,0.936,0.819
NC(=O)c1ccc[n+](C2OC(COP(=O)([O-])OP(=O)(O)OCC3OC(n4cnc5c(N)ncnc54)C(O)C3O)C(O)C2O)c1 (stereo not drawn),0.442,0.494,0.0738,0.151
CC(Cc1cc2c(c(C(N)=O)c1)N(CCCO)CC2)NCCOc1ccccc1OCC(F)(F)F (stereo not drawn) [Silodosin],0.827,0.861,0.878,0.702
C=CC[N+]1(C2CC3C4CCC5CC(O)C(N6CCOCC6)CC5(C)C4CCC3(C)C2OC(C)=O)CCCC1.[Br-] (stereo not drawn) [Rocuronium Bromide],0.58,0.839,0.659,0.854
CCCCCCc1ccc(O)cc1O [Hexylresorcinol],0.717,0.969,0.605,0.652
CC1(C)SC2C(NC(=O)C(N)c3ccccc3)C(=O)N2C1C(=O)OCOC(=O)C1N2C(=O)CC2S(=O)(=O)C1(C)C (stereo not drawn) [Sultamicillin],0.647,0.861,0.598,0.627
CC(=O)NC(CS)C(=O)O (stereo not drawn) [Acetylcysteine],1.05,1.07,1.01,0.871
Cc1ccccc1OCC(O)CO (stereo not drawn) [Mephenesin],0.614,0.591,0.858,0.656
CCc1ccc(CCOc2ccc(CC3SC(=O)NC3=O)cc2)nc1.Cl (stereo not drawn) [Pioglitazone HCl],0.655,0.697,0.493,0.81
"C=C(C)C1CC=C(C)C(=O)C1 (single isomer, unassigned; (+)) [(+)-(S)-Carvone]",0.774,0.619,0.696,0.459
CC(=O)OCC1=C(C(=O)O)N2C(=O)C(NC(=O)CSC(=NC(C)C)NC(C)C)C2SC1 (stereo not drawn) [Cefathiamidine],0.734,0.805,0.863,0.732
CCCCCCCCOc1ccccc1C(=O)Nc1ccc(C(=O)OCC[N+](C)(CC)CC)cc1.[Br-] [Otilonium Bromide],0.62,0.834,0.564,0.871
CC(=O)Oc1ccc(C(=C2CCCCC2)c2ccc(OC(C)=O)cc2)cc1 [Cyclofenil],0.767,0.738,0.781,0.696
CC1CC(OC(=O)C(O)c2ccccc2)CC(C)(C)C1 (stereo not drawn) [Cyclandelate],0.825,1.37,0.619,0.815
